PMC9911399, “Two distinct binding modes provide the RNA-binding protein RbFox with extraordinary sequence specificity”
Where a chain is given by its changes, count along the chain named. Some of the results follow.

B1: GCGUCAU (DNA:RNA)
RNA: GGGAGACCGGAAUUCAGAUUGUCCGCGUCAUUUAAAUCCCGUCGUAGCCACCA
DNA 1: CAATCTGAATTCCGGTCTCCC
DNA 2: TGGTGGCTACGACGGGATT
B2: UUCUGUU (DNA:RNA)
RNA: B1 RNA with G25U, C26U, G27C, C29G, A30U
DNA 1: CAATCTGAATTCCGGTCTCCC
DNA 2: TGGTGGCTACGACGGGATT
B3: GAGAGUC (DNA:RNA)
RNA: B1 RNA with C26A, U28A, C29G, A30U, U31C
DNA 1: CAATCTGAATTCCGGTCTCCC
DNA 2: TGGTGGCTACGACGGGATT
B4: UCUAGGG (DNA:RNA)
RNA: B1 RNA with G25U, G27U, U28A, C29G, A30G, U31G
DNA 1: CAATCTGAATTCCGGTCTCCC
DNA 2: TGGTGGCTACGACGGGATT
B5: CUCAACU (DNA:RNA)
RNA: B1 RNA with G25C, C26U, G27C, U28A, C29A, A30C
DNA 1: CAATCTGAATTCCGGTCTCCC
DNA 2: TGGTGGCTACGACGGGATT
B6: UCCACAG (DNA:RNA)
RNA: B1 RNA with G25U, G27C, U28A, U31G
DNA 1: CAATCTGAATTCCGGTCTCCC
DNA 2: TGGTGGCTACGACGGGATT
B7: AUAAUGC (DNA:RNA)
RNA: GGGAGACCGGAAUUCAGAUUGUCCAUAAUGCUUAAAUCCCGUCGUAGCCACCA
DNA 1: CAATCTGAATTCCGGTCTCCC
DNA 2: TGGTGGCTACGACGGGATT
B8: GAUAUAG (DNA:RNA)
RNA: B7 RNA with A25G, U26A, A27U, G30A, C31G
DNA 1: CAATCTGAATTCCGGTCTCCC
DNA 2: TGGTGGCTACGACGGGATT
B9: UGGAGAA (DNA:RNA)
RNA: B1 RNA with G25U, C26G, U28A, C29G, U31A
DNA 1: CAATCTGAATTCCGGTCTCCC
DNA 2: TGGTGGCTACGACGGGATT

Each binder was assayed against T1, RBFOX1 RRM (Homo sapiens, UniProt Q9NWB1 109-208) (assay: EMSA; HiTS-Eq, 1 nM pool, 10 min; buffer printed only for the single-RNA assays: 10 mM Tris pH 7.5, 150 mM NaCl, 3.4 mM EDTA, 0.001% NP-40, 30 C). Conditions: tags: His6 N-terminal (pET28a); label: 5' 32P.
T1 sequence: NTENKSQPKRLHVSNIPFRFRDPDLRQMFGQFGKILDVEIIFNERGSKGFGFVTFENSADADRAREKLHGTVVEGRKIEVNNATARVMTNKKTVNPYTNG
Method in brief: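 These values rest on relative association constants, computed from read-count changes of each RNA species versus the control reaction and normalised to the cognate motif. Reads came from free RNA recovered by 8% native PAGE after purified RbFox RRM (wild type or mutant) at increasing concentrations was equilibrated for 10 min in 50 µL with 1 nM of a 5′-radiolabelled pool with 7 randomized nucleotides and DNA-annealed flanks.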

Row | Binder | binding signal
1 | B1 | 0.00855 KA relative to UGCAUGU
2 | B2 | 0.0253 KA relative to UGCAUGU
3 | B3 | 0.0183 KA relative to UGCAUGU
4 | B4 | 0.00357 KA relative to UGCAUGU
5 | B5 | 0.00198 KA relative to UGCAUGU
6 | B6 | 0.00688 KA relative to UGCAUGU
7 | B7 | 0.00508 KA relative to UGCAUGU
8 | B8 | 0.0101 KA relative to UGCAUGU
9 | B9 | 0.0194 KA relative to UGCAUGU
